Laboratory results from the RNAGym collection of RNA variant scans (doi:10.1073/pnas.2313332121).
This sample is rich in variants without activity.

B1: TPR 5TU (parent)
chain: GGAUCUUCUCGAUCUAACAAAAAAGACAAAUCUGCCACAAAGCUUGAGAGCAUCUUCGGAUGCAGAGGCGGCAGCCUUCGGUGGCGCGAUAGCGCCAACGUUCUCAACUAUGACACGCAAAACGCGUGCUCCGUUGAAUGGAGUUUAUCAUG

Variants of: B1
Test: polymerase ribozyme fitness, log enrichment relative to wild type (log ratio); higher = more active; in vitro selection for triplet polymerase activity
Method in brief: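 After PCR construction and transcription, each subunit's mutant library from a heterodimeric triplet polymerase ribozyme was annealed with a biotinylated primer, the partner subunit and triplets. Incubation was frozen, at −7 °C, and extended constructs were gel-excised, bound to streptavidin beads and amplified by RT-PCR, in one selection round done in triplicate. Fitness is the logarithm of a genotype's enrichment divided by that of the wild type, from inverse-variance-weighted replicate averages of Illumina-sequenced inputs and outputs. The base of the logarithm is 2, and genotypes needed ≥10 input reads and ≥1 read per output.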

With C35U G65A C95A A106C G126A U151G as the variant, how does the “polymerase ribozyme fitness (log ratio)” value read?
Its value is ≤ -4.2.

Which “polymerase ribozyme fitness (log ratio)” value does the source give for A40C A49G C87U G128C here?
Its value is ≤ -4.2.

With A37U A64C C85A as the variant, how does the “polymerase ribozyme fitness (log ratio)” value read?
The value was ≤ -4.2.

Which “polymerase ribozyme fitness (log ratio)” value does the source give for A37C G84A C87U G92U U102C here?
Its value is ≤ -4.2.

Which “polymerase ribozyme fitness (log ratio)” value does the source give for C35U U53G G86U C114U C132U U139C C149U here?
Its value is ≤ -4.2.

Which “polymerase ribozyme fitness (log ratio)” value does the source give for C35G C96G G136A G143A here?
Its value is ≤ -4.2.

With C38A G59A G92A U134G as the variant, how does the “polymerase ribozyme fitness (log ratio)” value read?
The value was ≤ -4.2.

With C36A C76U G83A as the variant, how does the “polymerase ribozyme fitness (log ratio)” value read?
Its value is ≤ -4.2.

With A39C G88C G92C A113C as the variant, how does the “polymerase ribozyme fitness (log ratio)” value read?
Its value is ≤ -4.2.

Which “polymerase ribozyme fitness (log ratio)” value does the source give for C36U C79A C105U here?
Its value is ≤ -4.2.

With A39U C79U C87U C93A as the variant, how does the “polymerase ribozyme fitness (log ratio)” value read?
The value was ≤ -4.2.

Which “polymerase ribozyme fitness (log ratio)” value does the source give for A37U G42C C57A G94C C105G G141U here?
The value was ≤ -4.2.

For C36A A37U C54G U56A G92C U102A, which “polymerase ribozyme fitness (log ratio)” value is on record?
Its value is ≤ -4.2.

For A40C C57U A73U G83U A98U A115U A138U, which “polymerase ribozyme fitness (log ratio)” value is on record?
Its value is ≤ -4.2.

Which “polymerase ribozyme fitness (log ratio)” value does the source give for A37C U44A C51A C54U U78A G92U C105U A106U A110U U111G G140A here?
The value was ≤ -4.2.

For C35G U102A A110U C129A G133C, which “polymerase ribozyme fitness (log ratio)” value is on record?
Its value is ≤ -4.2.

With C38A A47C U77C C85G C129A G141U U146G as the variant, how does the “polymerase ribozyme fitness (log ratio)” value read?
The value was ≤ -4.2.

With C36U G50C C85U U109A as the variant, how does the “polymerase ribozyme fitness (log ratio)” value read?
The value was ≤ -4.2.

With C35U U61G C85A G112U as the variant, how does the “polymerase ribozyme fitness (log ratio)” value read?
Its value is ≤ -4.2.

Which “polymerase ribozyme fitness (log ratio)” value does the source give for A39G U82G A91G A107U G126C here?
The value was ≤ -4.2.

For A40C G42C A49G G58U G83C G92A A107C G141C C149G, which “polymerase ribozyme fitness (log ratio)” value is on record?
The value was ≤ -4.2.

Which “polymerase ribozyme fitness (log ratio)” value does the source give for C35G U55A A60G U90C U101A A150G G152C here?
Its value is ≤ -4.2.

For C35G C79U G80A A121C, which “polymerase ribozyme fitness (log ratio)” value is on record?
The value was ≤ -4.2.

For C36A U45G A97G, which “polymerase ribozyme fitness (log ratio)” value is on record?
The value was ≤ -4.2.

Which “polymerase ribozyme fitness (log ratio)” value does the source give for A40C U45A A97G A107U C114A U127G U134C here?
Its value is ≤ -4.2.

Which “polymerase ribozyme fitness (log ratio)” value does the source give for C38U G59A A73C G83U G140U here?
The value was ≤ -4.2.

For A39G A49U U53C U90G C103G, which “polymerase ribozyme fitness (log ratio)” value is on record?
Its value is ≤ -4.2.

Which “polymerase ribozyme fitness (log ratio)” value does the source give for C35U C57U U90G C99U U101A C116G here?
Its value is ≤ -4.2.

Which “polymerase ribozyme fitness (log ratio)” value does the source give for A39C C75G C76U C85U G92U C93U C99U G126A here?
Its value is ≤ -4.2.

For A39C G80A C129A G136U, which “polymerase ribozyme fitness (log ratio)” value is on record?
The value was ≤ -4.2.

With C35U G46A C87A C103U A115U as the variant, how does the “polymerase ribozyme fitness (log ratio)” value read?
The value was ≤ -4.2.

With C36A C96U U104C as the variant, how does the “polymerase ribozyme fitness (log ratio)” value read?
Its value is ≤ -4.2.

Which “polymerase ribozyme fitness (log ratio)” value does the source give for A37G C75G U130C C132U here?
Its value is ≤ -4.2.

For A39U G46C A52G A89G C96U G152U, which “polymerase ribozyme fitness (log ratio)” value is on record?
Its value is ≤ -4.2.

Which “polymerase ribozyme fitness (log ratio)” value does the source give for A39C G59C G94C A106U A121G U151G here?
The value was ≤ -4.2.

For A40C G86A G88A, which “polymerase ribozyme fitness (log ratio)” value is on record?
Its value is ≤ -4.2.

Which “polymerase ribozyme fitness (log ratio)” value does the source give for C36A U56C C85G A115U C123G here?
Its value is ≤ -4.2.

With A37C A64U C116U as the variant, how does the “polymerase ribozyme fitness (log ratio)” value read?
Its value is ≤ -4.2.

With A40C G88U C99U U139C G141A C149G as the variant, how does the “polymerase ribozyme fitness (log ratio)” value read?
Its value is ≤ -4.2.

With C38G G58C A64C C79A U146G as the variant, how does the “polymerase ribozyme fitness (log ratio)” value read?
The value was ≤ -4.2.

With A37G C75U C76A G141A as the variant, how does the “polymerase ribozyme fitness (log ratio)” value read?
The value was ≤ -4.2.

For A39U U82C C87U C96G G117U U134A, which “polymerase ribozyme fitness (log ratio)” value is on record?
The value was ≤ -4.2.

For C36A G42A U78A G84A C95U U135G, which “polymerase ribozyme fitness (log ratio)” value is on record?
The value was ≤ -4.2.

Which “polymerase ribozyme fitness (log ratio)” value does the source give for A39C C72A U90G A91G U135A here?
The value was ≤ -4.2.

Which “polymerase ribozyme fitness (log ratio)” value does the source give for A39C G50A A98G A107C G140A here?
The value was ≤ -4.2.

With A39U C43G C54G U77G as the variant, how does the “polymerase ribozyme fitness (log ratio)” value read?
The value was ≤ -4.2.

For A37C A107C G152A, which “polymerase ribozyme fitness (log ratio)” value is on record?
Its value is ≤ -4.2.

Which “polymerase ribozyme fitness (log ratio)” value does the source give for C38A A98G A120C U139A U148A here?
The value was ≤ -4.2.

Which “polymerase ribozyme fitness (log ratio)” value does the source give for C36A C75U A89G C93A C108G G136C here?
The value was ≤ -4.2.

With A37C G71A C85G G100A C116G as the variant, how does the “polymerase ribozyme fitness (log ratio)” value read?
The value was ≤ -4.2.

Which “polymerase ribozyme fitness (log ratio)” value does the source give for C38U U77C G92A here?
The value was ≤ -4.2.

With C35U U55A A66U C87U G126U U134A as the variant, how does the “polymerase ribozyme fitness (log ratio)” value read?
Its value is ≤ -4.2.

Which “polymerase ribozyme fitness (log ratio)” value does the source give for A39G U78C G86C A107G C116A here?
The value was ≤ -4.2.

With A40C C57G G58C C87G A106G C114U as the variant, how does the “polymerase ribozyme fitness (log ratio)” value read?
The value was ≤ -4.2.

For A37C C57A U82C C87G G117A U130C, which “polymerase ribozyme fitness (log ratio)” value is on record?
Its value is ≤ -4.2.

Which “polymerase ribozyme fitness (log ratio)” value does the source give for C36U C96A U102G here?
Its value is ≤ -4.2.

Which “polymerase ribozyme fitness (log ratio)” value does the source give for C36A G50C A66U G92A here?
Its value is ≤ -4.2.

Which “polymerase ribozyme fitness (log ratio)” value does the source give for C35G G92A A115C A142G here?
Its value is ≤ -4.2.

For C35U C96U C105G G126C A142U, which “polymerase ribozyme fitness (log ratio)” value is on record?
The value was ≤ -4.2.

With A40C U53C G94U C95U G140U G143C as the variant, how does the “polymerase ribozyme fitness (log ratio)” value read?
The value was ≤ -4.2.

Which “polymerase ribozyme fitness (log ratio)” value does the source give for C38U G58C U90G U109C U144A U146A here?
Its value is ≤ -4.2.

Which “polymerase ribozyme fitness (log ratio)” value does the source give for A39C A47G G50C A60C G67U G71A G84A C99U A119C here?
The value was ≤ -4.2.

With C36U U53G G86A G141U as the variant, how does the “polymerase ribozyme fitness (log ratio)” value read?
Its value is ≤ -4.2.

For C36U C57U C85U U102A C108U, which “polymerase ribozyme fitness (log ratio)” value is on record?
Its value is ≤ -4.2.

Which “polymerase ribozyme fitness (log ratio)” value does the source give for A39U C57U G67C C108U here?
Its value is ≤ -4.2.

Which “polymerase ribozyme fitness (log ratio)” value does the source give for C36U C63U G83C G92A C99U here?
Its value is ≤ -4.2.

For A37C A49G U56A C57A G71A, which “polymerase ribozyme fitness (log ratio)” value is on record?
Its value is ≤ -4.2.

With C35U C85U C87G C118U C123A G126U C149G as the variant, how does the “polymerase ribozyme fitness (log ratio)” value read?
The value was ≤ -4.2.

With C38U C43G C85A A110U A113G as the variant, how does the “polymerase ribozyme fitness (log ratio)” value read?
Its value is ≤ -4.2.

Which “polymerase ribozyme fitness (log ratio)” value does the source give for C38U U90C U102G C116G here?
The value was ≤ -4.2.

With A39C A73C G94A C99G C116U A121C as the variant, how does the “polymerase ribozyme fitness (log ratio)” value read?
Its value is ≤ -4.2.

For C36G G65C G88C A107G, which “polymerase ribozyme fitness (log ratio)” value is on record?
The value was ≤ -4.2.

Which “polymerase ribozyme fitness (log ratio)” value does the source give for C35U U53A G84C C99G G133C here?
Its value is ≤ -4.2.

Which “polymerase ribozyme fitness (log ratio)” value does the source give for A37G G70A G92C G140A here?
Its value is ≤ -4.2.

Which “polymerase ribozyme fitness (log ratio)” value does the source give for A37C G84A C93U U101A here?
Its value is ≤ -4.2.

For C35U A91U C93A C129G, which “polymerase ribozyme fitness (log ratio)” value is on record?
The value was ≤ -4.2.

Which “polymerase ribozyme fitness (log ratio)” value does the source give for A37C G84U C99U C103U G140C here?
Its value is ≤ -4.2.

With A39C C51U A66G U82G G84U U101C as the variant, how does the “polymerase ribozyme fitness (log ratio)” value read?
Its value is ≤ -4.2.

With A39G C87A A106C A137G G143U as the variant, how does the “polymerase ribozyme fitness (log ratio)” value read?
Its value is ≤ -4.2.

Which “polymerase ribozyme fitness (log ratio)” value does the source give for A40C A73G A91U G94A C95U C108A U111A C125G here?
The value was ≤ -4.2.

Which “polymerase ribozyme fitness (log ratio)” value does the source give for A39U G88U here?
The value was ≤ -4.2.

With C36U A47C U56A C93G U145G as the variant, how does the “polymerase ribozyme fitness (log ratio)” value read?
The value was ≤ -4.2.

Which “polymerase ribozyme fitness (log ratio)” value does the source give for C38A C93A C105G here?
The value was ≤ -4.2.
